Assay results taken from PubChem BioAssay AID485281 (National Center for Advancing Translational Sciences (NCATS), 2010).
Screen size: about 350,000 compounds; about 260 (0.074%) were called active. Inconclusive results, whose numbers are uncertain, are shown with a selection of clear calls. Calls follow the shape of the dose curve; as a rule, active = well fitted inhibition curve with a large enough effect; inconclusive = small, poorly fitted or top-dose-only effect; inactive = no such curve, though single readings can be large or run the other way. Potencies of inconclusive entries are doubtful fits and often do not repeat.

What follows are molecules tested against Ferritin light chain (Equus caballus) (UniProt P02791) (assay: qHTS Assay for Identification of Novel General Anesthetics). Settings: apoferritin/1-aminoanthracene competitive binding, fluorescence; series mostly up to 77.5 µM.
Chain of UniProt P02791 (P02791 whole entry, looked up): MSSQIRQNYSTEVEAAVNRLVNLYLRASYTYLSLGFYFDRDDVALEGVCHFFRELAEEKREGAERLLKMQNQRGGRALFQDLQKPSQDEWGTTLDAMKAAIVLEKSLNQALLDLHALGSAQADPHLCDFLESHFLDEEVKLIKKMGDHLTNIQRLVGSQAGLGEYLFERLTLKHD
Outline: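 10 uM apoferritin + 50% sat. 1-AMA, PBS; cpd 10 min RT; Ex380/Em535 endpoint; normalized to free probe vs complex; 4-param Hill fit; propofol titration as pos. ctrl.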
Also: nearly all actives have a fitted effect of over 20% in size.
Potency is read from the fitted curve at half-maximal effect; tags tell the direction and shape of the fitted curve.

Potency, inconclusive:
Cc1cccc(NC(=O)c2sc3nc4c(c(-c5cccs5)c3c2N)CN(C)CC4)c1 20 µM [inhibitor, partial curve]
COc1ccccc1C(=O)n1nc(-c2ccco2)nc1SC 25.1 µM [inhibitor, single point]
CC(C)(C)Sc1ccc(/C=N/O)cc1[N+](=O)[O-] 25.1 µM [inhibitor, partial curve]
CC1CCC2(CC1)NC(=O)N(CC(=O)Nc1ccc3c(c1)OCCO3)C2=O (stereo unspecified) 25.1 µM [inhibitor, partial curve]
Cc1ccc(Cn2cnc3ccccc32)cc1C 35.5 µM [inhibitor, single point]
CCCCCCCC(=O)NC(Nc1ccc(S(N)(=O)=O)cc1)C(Cl)(Cl)Cl (stereo unspecified) 22.4 µM [inhibitor, partial curve]
CN1CC2=Cc3ccccc3OC23Oc2ccccc2C=C3C1 22.4 µM [inhibitor, partial curve]
Cc1ccc(N2Cc3ccccc3OC(C)C2=O)cc1 (stereo unspecified) 28.2 µM [inhibitor, partial curve]
Cc1cc(C(=O)OCC(=O)Nc2ncc(C(F)(F)F)cc2Cl)c(C)o1 28.2 µM [inhibitor, partial curve]
C#CC(C)(CC)NC(=O)c1cc2c(n(-c3ccc(Cl)cc3)c1=O)CC(C)(C)CC2=O (stereo unspecified) 35.5 µM [inhibitor, single point]
O=C(CCNC(=O)c1ccccc1)OCC(=O)c1cccc(Cl)c1 28.2 µM [inhibitor, single point]
CNC(=S)/N=C/NOCc1ccc(Cl)cc1Cl 25.1 µM [inhibitor, single point]
CC(=O)N1c2ccccc2C(=O)C1N1CCN(c2cccc(C(F)(F)F)c2)CC1 (stereo unspecified) 25.1 µM [inhibitor, partial curve]
CCC(C(=O)NCc1ccco1)n1nc(-c2ccc(OC)cc2)ccc1=O (stereo unspecified) 35.5 µM [inhibitor, partial curve, poor fit]
CCN1CCN(c2c(S(=O)(=O)c3ccccc3)cnc3ccc(Cl)cc23)CC1 7.94 µM [inhibitor, partial curve]
Cc1cc(NC(=O)COC(=O)C2CCN(S(=O)(=O)c3c(Cl)cccc3Cl)CC2)no1 28.2 µM [inhibitor, partial curve]
O=S(=O)(Nc1ccc(N=Nc2ccccc2)cc1)c1ccccc1 50.1 µM [inhibitor, single point]
CC/C(=N\NC(=O)CCC(=O)NCc1ccccc1)c1ccc(O)cc1 25.1 µM [inhibitor, partial curve]
Cc1ccc(S(=O)(=O)NC(C)c2ccccc2)cc1[N+](=O)[O-] (stereo unspecified) 28.2 µM [inhibitor, single point]
O=C(OCCOc1ccccc1Cl)c1ccc(-n2cnnn2)cc1 35.5 µM [inhibitor, partial curve]
CCCOc1ccc2oc(=O)c3c(c2c1)CCCN3C(=O)CN1CCCC(C(=O)OCC)C1 (stereo unspecified) 39.8 µM [inhibitor, partial curve]
COc1ccc(OC)c(NC(=O)c2ccc(N3C(=O)C4CC=C(C)CC4C3=O)cc2)c1 (stereo unspecified) 50.1 µM [inhibitor, single point]
CCC1CCCCN1S(=O)(=O)c1ccc(NC(=O)c2ccncc2)cc1 (stereo unspecified) 28.2 µM [inhibitor, partial curve]
COC(=O)Oc1ccc(/C=N/NC(=O)CSCc2ccccc2Br)cc1OC 15.8 µM [inhibitor, partial curve]
CC(=O)N/N=C/C1=CCC2CC1C2(C)C (stereo unspecified) 31.6 µM [inhibitor, partial curve]
CCOC(=O)C(Cc1ccc(NC(=O)/C(=C/c2ccc(OC(C)=O)cc2)NC(C)=O)cc1)N1C(=O)c2ccccc2C1=O (stereo unspecified) 31.6 µM [inhibitor, partial curve]
CCC(C)OC(=O)c1[nH]c2c(c1C)C(=O)CC(c1ccc(N(C)C)cc1)C2 (stereo unspecified) 25.1 µM [inhibitor, single point]
CC(C)(C)OC(=O)N1CCC(c2c(C(=O)N3CCN(c4ccc(Cl)cc4)CC3)cnn2-c2ccc(F)cc2F)CC1 11.2 µM [inhibitor, full curve]
COc1ccccc1CC(=O)Nc1cccc(F)c1 22.4 µM [inhibitor, single point]
Cc1ccc(NC(=O)C2(c3cccs3)CCOCC2)cc1C 50.1 µM [inhibitor, single point]
COc1ccccc1OCCCCCc1c(C)n[nH]c1C 28.2 µM [inhibitor, partial curve]
O=C(Nc1ccc2oc(Cc3ccc(Cl)cc3)nc2c1)c1cccnc1 56.2 µM [inhibitor, single point]
O=C(Nc1cnn(Cc2ccc(Cl)c(Cl)c2)c1)c1nc2ncccn2n1 12.6 µM [inhibitor, partial curve]
CC1CCC(NC(=O)CC2Oc3ccccc3NC2=O)CC1 (stereo unspecified) 14.1 µM [inhibitor, partial curve]
c1ccc(N2CCN(c3cnc4ccccc4n3)CC2)cc1 50.1 µM [inhibitor, partial curve]
CC(C)Cn1c(-c2csc3ccccc23)n[nH]c1=S 35.5 µM [inhibitor, partial curve]
Cc1nn(-c2nc(-c3ccc(F)cc3)cc(C(F)(F)F)n2)c(C)c1Br 11.2 µM [inhibitor, partial curve]
CCOC(=O)C1=NNC(C(=O)c2ccc(OC)cc2)C1c1ccccc1 (stereo unspecified) 44.7 µM [inhibitor, single point]
CCOc1ccc(Oc2nc(NCC(C)C)nc(NC(C)(C)C)n2)nn1 35.5 µM [inhibitor, single point]
O=C(CCc1c[nH]c2ccccc12)OCc1ccc(Br)cc1 25.1 µM [inhibitor, partial curve]
Cc1ccc(-c2nnc(SCC(C)C)n2C)cc1 31.6 µM [inhibitor, partial curve]
Cc1cccc(NC(=O)CN2C(=O)c3cccnc3Oc3ccc(Cl)cc32)c1C 7.94 µM [inhibitor, full curve, poor fit]
CCc1cccc(NC(=O)CCS(=O)(=O)c2cc(Br)cc3c2N(C(C)=O)CC3)c1 17.8 µM [inhibitor, partial curve]
O=C(CSc1nc2ccccc2nc1Cc1ccccc1)N1CCCCC1 28.2 µM [inhibitor, partial curve]
COc1cc(-c2nc3ncccn3c2Nc2ccc(C)cc2C)ccc1O 50.1 µM [inhibitor, single point]
C=CCC(Nc1ccco1)c1ccccc1 (stereo unspecified) 17.8 µM [inhibitor, single point]

Potency, inactive:
CC(C)(C)NC(=O)C(=O)NNC(=O)c1cccc(F)c1
O=C1NC(c2cccs2)Nc2sc3c(c21)CCCC3 (stereo unspecified)
COc1c(Cl)cc(C(=O)N(Cc2ccc(C)o2)C2CCS(=O)(=O)C2)cc1Cl (stereo unspecified)
Cc1oc(-c2cccc(Cl)c2)nc1CN1CCCC(C(=O)N2CCN(c3ccc(F)cc3)CC2)C1 (stereo unspecified)
Cc1ccc(NS(=O)(=O)c2c(C)nc3sccn3c2=O)cc1C
Cc1ccccc1OCC(=O)N(Cc1ccc(N(C)C)cc1)CC1CCCO1 (stereo unspecified)
C[C@H](N=C1NS(=O)(=O)c2ccccc21)C(=O)OCc1cc([N+](=O)[O-])cc2c1OCOC2
COc1ccc(Cn2c(SCc3ccc(C(=O)NCCc4ccccc4)cc3)nc3cccnc32)cc1
COc1ccc(S(=O)(=O)N2CCCC2)cc1NC(=O)c1ccccc1F
COc1ccc(O)c(/C=N/NC(=O)c2cc(=O)[nH]c3ccccc23)c1
O=C(N/N=C/c1cccc2cccnc12)c1ccccc1O
CC(c1ccccc1F)n1cc(C(=O)NCCCn2ccnc2)nn1 (stereo unspecified)
COc1ccccc1CNc1nc2ccccc2c2nc(-c3cccnc3)nn12
Nc1c(-c2ccccc2)cnn1-c1cccc(C(F)(F)F)c1
CCCOc1nc2c(c(=O)n(C)c(=O)n2C)n1Cc1cccc2ccccc12
COc1ccc(CNC(=O)C2CCN(C(=O)c3ccc(-n4ccc5ccccc54)s3)CC2)cc1
O=C(O)CCC(=O)N1CCN(Cc2ccc3c(c2)OCO3)CC1
O=C(/C=C1\NC2(CCCC2)Cc2ccccc21)C(=O)N/N=C/c1ccccc1O
N#Cc1c(NC(=O)CSc2nc(-c3ccco3)cc(C(F)(F)F)n2)sc2c1CCCC2
CC1(C)C(C(=O)OCC(Cl)(Cl)Cl)N2C(=O)C(NC(=O)Cc3ccccc3)C2S1=O (stereo unspecified)
O=C(Nc1nc(-c2cc3ccccc3o2)cs1)c1ccc(S(=O)(=O)N2CCCC2)cc1
CCc1nnc(SCC(=O)N2CCCc3ccccc32)nc1CC
Cc1cccc(/C=C(\C#N)C(=O)Nc2ccccn2)c1
O=C(CSc1ncccn1)NCc1ccc(Cl)cc1
Cc1ccc(C(C(=O)Nc2ccc3c(c2)OCO3)N(C)C(=O)Cc2c[nH]c3ccccc23)cc1 (stereo unspecified)
